Publication PMC7757826
No constants are given. Whether binding was seen depends on the method and setting. In cells and extracts the contact can be indirect. Some results given as binding are weak or reduced against the parent protein; the word gives no strength.

The chains behind the UniProt entries cited, without tags or fusion partners.
UniProt O95832: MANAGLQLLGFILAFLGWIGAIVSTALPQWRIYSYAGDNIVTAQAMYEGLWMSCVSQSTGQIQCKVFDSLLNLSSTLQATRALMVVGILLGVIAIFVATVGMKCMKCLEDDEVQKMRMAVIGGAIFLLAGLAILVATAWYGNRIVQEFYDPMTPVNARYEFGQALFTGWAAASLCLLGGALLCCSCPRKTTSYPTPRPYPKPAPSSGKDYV
UniProt O14493: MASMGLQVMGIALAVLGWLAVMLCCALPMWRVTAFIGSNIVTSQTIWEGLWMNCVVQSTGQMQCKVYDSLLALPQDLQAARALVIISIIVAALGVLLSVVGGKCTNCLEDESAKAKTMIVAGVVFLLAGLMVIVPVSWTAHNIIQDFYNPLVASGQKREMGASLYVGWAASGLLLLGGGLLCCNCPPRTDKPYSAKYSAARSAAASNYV

T1: claudin-7 (human (endogenous in A2780, OVCAR-3, SKOV-3 and A2780cis cells)) (UniProt O95471)
T1 sequence: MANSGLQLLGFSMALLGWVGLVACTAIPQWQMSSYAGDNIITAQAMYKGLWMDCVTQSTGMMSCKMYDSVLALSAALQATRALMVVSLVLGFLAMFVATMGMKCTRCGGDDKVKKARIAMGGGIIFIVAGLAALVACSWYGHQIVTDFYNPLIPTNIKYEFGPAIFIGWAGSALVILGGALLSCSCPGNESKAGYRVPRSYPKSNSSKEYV

T2: CD82 (Tspan-27) (human (endogenous in A2780, OVCAR-3, SKOV-3 and A2780cis cells)) (UniProt P27701)
T2 sequence: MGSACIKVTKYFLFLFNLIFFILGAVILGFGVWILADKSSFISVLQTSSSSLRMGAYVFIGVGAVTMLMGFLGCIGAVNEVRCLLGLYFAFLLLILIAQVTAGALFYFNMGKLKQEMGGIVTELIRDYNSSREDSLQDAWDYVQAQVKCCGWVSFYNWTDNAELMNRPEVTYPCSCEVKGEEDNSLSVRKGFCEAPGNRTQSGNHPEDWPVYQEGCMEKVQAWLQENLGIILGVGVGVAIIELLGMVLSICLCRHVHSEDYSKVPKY


Assays:
[1] = molecular target: T1, claudin-7 (human (endogenous in A2780, OVCAR-3, SKOV-3 and A2780cis cells)); assay: condition: only cells treated with 50 μM 2-BP (palmitoylation inhibitor); co-IP; A2780 cells treated with the palmitoylation inhibitor 2-BP (50 μM, 20 h, 37 °C), RIPA buffer; anti-CD82 or anti-claudin-7 precipitates
[2] = molecular target: T1, claudin-7 (human (endogenous in A2780, OVCAR-3, SKOV-3 and A2780cis cells)); assay: condition: only cells treated with 50 μM 2-BP (palmitoylation inhibitor); co-IP; SKOV-3 cells treated with the palmitoylation inhibitor 2-BP (50 μM, 20 h, 37 °C), RIPA buffer; anti-CD82 or anti-claudin-7 precipitates
[3] = molecular target: T2, CD82 (Tspan-27) (human (endogenous in A2780, OVCAR-3, SKOV-3 and A2780cis cells)); assay: cross-linking + co-IP; SKOV-3 cells treated with DSP or DTSSP (1 mM, 30 min, 37 °C), claudin-7 precipitates also after 2-BP beforehand, lysed in RIPA buffer; anti-CD82 or anti-claudin-7 precipitates
[4] = molecular target: T1, claudin-7 (human (endogenous in A2780, OVCAR-3, SKOV-3 and A2780cis cells)); assay: condition: only cells treated with 50 μM 2-BP (palmitoylation inhibitor); co-IP; OVCAR-3 cells treated with the palmitoylation inhibitor 2-BP (50 μM, 20 h, 37 °C), RIPA buffer; anti-CD82 or anti-claudin-7 precipitates
[5] = molecular target: T2, CD82 (Tspan-27) (human (endogenous in A2780, OVCAR-3, SKOV-3 and A2780cis cells)); assay: co-IP; A2780cis (cisplatin-resistant) cells lysed in 1% Triton X-100 buffer; lysates precipitated with antibodies to the studied molecules, western blot
[6] = molecular target: T2, CD82 (Tspan-27) (human (endogenous in A2780, OVCAR-3, SKOV-3 and A2780cis cells)); assay: cross-linking + co-IP; OVCAR-3 cells treated with DSP or DTSSP (1 mM, 30 min, 37 °C), with or without 2-BP beforehand, lysed in RIPA buffer; anti-CD82 or anti-claudin-7 precipitates
[7] = molecular target: T2, CD82 (Tspan-27) (human (endogenous in A2780, OVCAR-3, SKOV-3 and A2780cis cells)); assay: co-IP; A2780 cells lysed in 1% Triton X-100 buffer; lysates precipitated with antibodies to the studied molecules, western blot
[8] = molecular target: T1, claudin-7 (human (endogenous in A2780, OVCAR-3, SKOV-3 and A2780cis cells)); assay: as above
[9] = molecular target: T2, CD82 (Tspan-27) (human (endogenous in A2780, OVCAR-3, SKOV-3 and A2780cis cells)); assay: co-IP; SKOV-3 cells lysed in 1% Triton X-100 buffer; lysates precipitated with antibodies to the studied molecules, western blot
[10] = molecular target: claudin-1 (human (endogenous in A2780, OVCAR-3 and SKOV-3 cells)) (UniProt O95832); assay: as above
[11] = molecular target: T2, CD82 (Tspan-27) (human (endogenous in A2780, OVCAR-3, SKOV-3 and A2780cis cells)); assay: cross-linking + co-IP; A2780 cells treated first with 2-BP and then with DSP or DTSSP; anti-CD82 or anti-claudin-7 precipitates
[12] = molecular target: T2, CD82 (Tspan-27) (human (endogenous in A2780, OVCAR-3, SKOV-3 and A2780cis cells)); assay: co-IP; tumours of SKOV-3 xenograft nude mice, homogenised in 50 mM Tris-HCl pH 8.0, 150 mM NaCl, 1% Triton X-100; immunoprecipitation and western blot
[13] = molecular target: T2, CD82 (Tspan-27) (human (endogenous in A2780, OVCAR-3, SKOV-3 and A2780cis cells)); assay: co-IP; OVCAR-3 cells lysed in 1% Triton X-100 buffer; lysates precipitated with antibodies to the studied molecules, western blot
[14] = molecular target: claudin-1 (human (endogenous in A2780, OVCAR-3 and SKOV-3 cells)) (UniProt O95832); assay: as above
[15] = molecular target: T1, claudin-7 (human (endogenous in A2780, OVCAR-3, SKOV-3 and A2780cis cells)); assay: cross-linking + co-IP; OVCAR-3 cells treated with DSP or DTSSP (1 mM, 30 min, 37 °C), with or without 2-BP beforehand, lysed in RIPA buffer; anti-CD82 or anti-claudin-7 precipitates

binding [1]	binding [2]	binding [3]	binding [4]	binding [5]	binding [6]	binding [7]	binding [8]	binding [9]	binding [10]	binding [11]	binding [12]	binding [13]	binding [14]	binding [15]	Molecule
no binding	no binding	binds	no binding	binds	binds	binds	binds weakly	binds	binds	binds	binds	binds	binds		claudin-4 (from UniProt O14493 1-209)
no binding	no binding	binds	no binding	binds	binds	binds	binds weakly	binds	binds	binds	binds	binds	binds	binds	Epithelial cell adhesion molecule (EpCAM) (protein, UniProt P16422 24-314) QEECVCENYKLAVNCFVNNNRQCQCTSVGAQNTVICSKLAAKCLVMKAEMNGSKLGRRAKPEGALQNNDGLYDPDCDESGLFKAKQCNGTSMCWCVNTAGVRRTDKDTEITCSERVRTYWIIIELKHKAREKPYDSKSLRTALQKEITTRYQLDPKFITSILYENNVITIDLVQNSSQKTQNDVDIADVAYYFEKDVKGESLFHSKKMDLTVNGEQLDLDPGQTLIYYVDEKAPEFSMQGLKAGVIAVIVVVVIAVVAGIVVLVISRKKRMAKYEKAEIKEMGEMHRELNA
